Test results published in PMC3656144.
Results are given in words; binding and its absence hold for the method and conditions named. In cells and extracts the contact can be indirect. Some binding calls cover weakened binding; strength is not graded here. Sequences can lack the tags named with a protein.

T1: endogenous CED-6 (C. elegans (endogenous in whole animal lysate)) (UniProt O76337)
T1 sequence: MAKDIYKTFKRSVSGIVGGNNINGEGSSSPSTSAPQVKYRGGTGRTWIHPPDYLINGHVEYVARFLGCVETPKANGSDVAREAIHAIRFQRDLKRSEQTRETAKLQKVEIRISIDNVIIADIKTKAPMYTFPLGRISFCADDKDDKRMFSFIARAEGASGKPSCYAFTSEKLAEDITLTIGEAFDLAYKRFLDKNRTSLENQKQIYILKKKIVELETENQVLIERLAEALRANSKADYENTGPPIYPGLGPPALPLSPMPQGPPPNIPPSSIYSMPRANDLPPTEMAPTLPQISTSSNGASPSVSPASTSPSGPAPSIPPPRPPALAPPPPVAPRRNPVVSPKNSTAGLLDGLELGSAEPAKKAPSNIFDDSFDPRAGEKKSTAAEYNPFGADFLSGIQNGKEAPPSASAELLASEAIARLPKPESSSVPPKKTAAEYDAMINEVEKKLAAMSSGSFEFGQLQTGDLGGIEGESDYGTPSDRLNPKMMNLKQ

T2: endogenous CED-1 (C. elegans (endogenous in whole animal lysate)) (UniProt Q9XWD6)
T2 sequence: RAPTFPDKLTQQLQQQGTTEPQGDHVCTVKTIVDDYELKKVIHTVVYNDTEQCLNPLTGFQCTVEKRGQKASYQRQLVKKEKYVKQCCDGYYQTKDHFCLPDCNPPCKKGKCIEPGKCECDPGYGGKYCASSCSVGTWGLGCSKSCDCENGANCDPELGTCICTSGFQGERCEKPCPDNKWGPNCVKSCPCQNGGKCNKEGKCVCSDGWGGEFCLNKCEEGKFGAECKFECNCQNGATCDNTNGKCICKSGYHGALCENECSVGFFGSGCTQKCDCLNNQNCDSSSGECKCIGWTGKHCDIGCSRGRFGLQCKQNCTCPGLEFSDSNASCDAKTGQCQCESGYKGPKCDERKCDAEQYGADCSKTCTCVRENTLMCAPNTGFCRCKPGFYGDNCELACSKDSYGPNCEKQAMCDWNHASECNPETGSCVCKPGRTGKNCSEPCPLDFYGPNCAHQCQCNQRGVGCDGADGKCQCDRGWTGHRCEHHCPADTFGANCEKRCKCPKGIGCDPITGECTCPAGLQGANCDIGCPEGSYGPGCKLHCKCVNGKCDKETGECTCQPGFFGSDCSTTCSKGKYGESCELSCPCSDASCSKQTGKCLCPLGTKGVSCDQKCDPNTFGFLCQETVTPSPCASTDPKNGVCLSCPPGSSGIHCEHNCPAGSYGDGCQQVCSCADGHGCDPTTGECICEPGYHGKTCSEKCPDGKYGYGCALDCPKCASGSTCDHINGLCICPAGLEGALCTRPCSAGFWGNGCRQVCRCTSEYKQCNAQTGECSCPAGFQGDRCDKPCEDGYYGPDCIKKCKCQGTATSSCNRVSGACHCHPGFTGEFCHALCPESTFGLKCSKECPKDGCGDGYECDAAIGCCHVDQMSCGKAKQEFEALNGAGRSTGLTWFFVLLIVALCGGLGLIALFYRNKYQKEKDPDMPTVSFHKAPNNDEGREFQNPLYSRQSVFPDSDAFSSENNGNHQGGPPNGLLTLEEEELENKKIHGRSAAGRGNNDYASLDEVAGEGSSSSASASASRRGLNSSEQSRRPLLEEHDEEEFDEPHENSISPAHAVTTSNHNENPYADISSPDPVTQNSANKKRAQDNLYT

T3: GST-fused intracellular region of CED-1 (CED-1C, amino acids 933–1111) (C. elegans) (UniProt Q9XWD6)
T3 sequence: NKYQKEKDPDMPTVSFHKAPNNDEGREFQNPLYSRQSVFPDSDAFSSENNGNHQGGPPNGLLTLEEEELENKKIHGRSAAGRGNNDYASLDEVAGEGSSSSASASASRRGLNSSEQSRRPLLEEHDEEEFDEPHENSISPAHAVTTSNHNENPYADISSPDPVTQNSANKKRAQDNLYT

T4: GST-fused CED-6 (C. elegans) (UniProt O76337)
T4 sequence: T1 sequence

T5: GST-fused DYN-1 (C. elegans) (UniProt P39055)
T5 sequence: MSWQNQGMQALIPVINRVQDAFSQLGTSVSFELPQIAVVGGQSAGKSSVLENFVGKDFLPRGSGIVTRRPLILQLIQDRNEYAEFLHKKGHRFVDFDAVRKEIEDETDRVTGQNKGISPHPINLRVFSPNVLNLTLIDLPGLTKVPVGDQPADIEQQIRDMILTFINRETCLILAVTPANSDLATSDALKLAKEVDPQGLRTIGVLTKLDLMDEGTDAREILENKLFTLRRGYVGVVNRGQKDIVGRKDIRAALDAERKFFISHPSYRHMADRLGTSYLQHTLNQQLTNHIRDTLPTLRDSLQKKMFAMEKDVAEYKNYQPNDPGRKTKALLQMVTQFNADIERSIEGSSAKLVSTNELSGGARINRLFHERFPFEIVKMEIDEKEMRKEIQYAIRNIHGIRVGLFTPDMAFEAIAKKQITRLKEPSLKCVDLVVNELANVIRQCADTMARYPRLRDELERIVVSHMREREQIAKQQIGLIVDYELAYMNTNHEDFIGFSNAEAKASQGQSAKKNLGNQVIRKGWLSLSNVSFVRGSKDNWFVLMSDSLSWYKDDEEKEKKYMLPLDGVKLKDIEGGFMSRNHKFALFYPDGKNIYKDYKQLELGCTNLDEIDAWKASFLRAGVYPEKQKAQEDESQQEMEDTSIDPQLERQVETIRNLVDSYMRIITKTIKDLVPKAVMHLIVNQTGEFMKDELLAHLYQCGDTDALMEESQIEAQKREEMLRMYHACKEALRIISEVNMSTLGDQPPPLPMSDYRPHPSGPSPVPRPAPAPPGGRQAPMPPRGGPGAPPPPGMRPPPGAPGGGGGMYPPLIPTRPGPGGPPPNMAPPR

T6: GST-fused LST-4 (C. elegans) (UniProt Q8I4E2)
T6 sequence: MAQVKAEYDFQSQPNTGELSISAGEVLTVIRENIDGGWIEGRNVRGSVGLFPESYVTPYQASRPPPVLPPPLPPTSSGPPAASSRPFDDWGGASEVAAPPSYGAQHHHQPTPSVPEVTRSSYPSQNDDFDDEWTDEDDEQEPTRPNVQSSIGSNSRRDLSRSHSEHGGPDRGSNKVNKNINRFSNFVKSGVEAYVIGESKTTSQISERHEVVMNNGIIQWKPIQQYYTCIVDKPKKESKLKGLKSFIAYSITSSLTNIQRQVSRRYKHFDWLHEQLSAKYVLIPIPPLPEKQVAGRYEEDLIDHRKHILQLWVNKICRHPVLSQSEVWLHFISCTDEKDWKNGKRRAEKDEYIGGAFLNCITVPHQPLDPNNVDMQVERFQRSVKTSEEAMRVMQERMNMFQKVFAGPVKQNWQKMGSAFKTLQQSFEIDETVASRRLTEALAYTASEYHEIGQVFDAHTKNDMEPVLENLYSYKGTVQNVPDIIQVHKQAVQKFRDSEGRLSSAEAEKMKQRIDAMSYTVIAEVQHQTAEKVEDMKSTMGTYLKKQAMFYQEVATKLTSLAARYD

T7: GST-fused CED-9 (C. elegans) (UniProt P41958)
T7 sequence: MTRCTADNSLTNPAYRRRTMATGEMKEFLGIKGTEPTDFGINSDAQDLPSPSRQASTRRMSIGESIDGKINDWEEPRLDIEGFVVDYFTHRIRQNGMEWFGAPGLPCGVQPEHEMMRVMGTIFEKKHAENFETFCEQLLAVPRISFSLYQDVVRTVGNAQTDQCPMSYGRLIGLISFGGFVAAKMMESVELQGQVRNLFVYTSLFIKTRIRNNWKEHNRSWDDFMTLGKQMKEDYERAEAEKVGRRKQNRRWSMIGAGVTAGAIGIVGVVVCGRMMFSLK

B1: APA-2::GFP (protein, UniProt Q22601 1-925)
chain: MPAVKGDGMRGLAVFISDIRNCKSKEAELKRINKELANIRSKFKGDKTLDGYQKKKYVCKLLFIFLLGNDIDFGHMEAVNLLSSNKYTEKQIGYLFISVLIEQQSDLMKLIVQGIRNDLTSRNPVHVNLALQCISNMGSREMVEAFCTDLPKLLVSGETIDFVKQSAALCILKLFRNSPDSFQPGDYASRIVHLLNDSHMGVVTSAASLIEALSKKWPEEYKGAVPLAISRLSRIVTATYTDLQDYTYYFVPAPWLCVKLLRLLQNYPPPDDPSNKARLLECLEGILNKAQDAPKSKKVQHSNAKNAVLFEAIALIIHMDSEPQLLVRACNQLGTFLSHRETNLRYLALESMCLLATSEFSHDAVKKHQDTIINSLKTERDVSVRQRAVDLLYAMCDRSNANQIVAEMLAYLETADYSIREEMVLKVAILAEKYATDYTWYVDVILKLIRIAGDYVSEEVWYRVIQIVVNREDVQGYAAKTVFEALQRPACHENMVKVGGYILGEFGNFIAGDERSTAKIQFELLHSKFHLCSITTRCLLLTTYIKFCNLFPEIKPLVQQVFQTDHNLRNPDAELQQRSIEYLQMTKLASNDVLATILEVMPAFAEKESSLLAKLKKSKPQLEEIEREEKEKRSKPTAVMSEGSTSLVDFDSTNDTTASLADVFANNSGTGLGAQGDEVEIANKDDYLKFVTKSNAILWEDDYIQIGCKLETRNNLGRLGMFYGNKTSQPFNKFTPIITCPGALAVQLQAQAKPVEPVVAAGTQVQQLINFVCVQEFQKMPIMNIKFTFTDRAGAVQNFDKNFYLPLFISKFFEPTNMTSEQFFTRWKSLGAASQEAQKIFNALSPIEHATIESRLKGFGANLLTDVDPNPDNYVCAGIIHTQTQQIGTLIRLEPNKQAKMYRLTIRSSKDTVVQTLVDLLGNQF
B2: ^35S-labeled DPY-23 (protein, UniProt P35603 1-441)
chain: MIGGLFVYNHKGEVLISRIYRDDVTRNAVDAFRVNVIHARQQVRSPVTNMARTSFFHVKRGNVWICAVTRQNVNAAMVFEFLKRFADTMQSYFGKLNEENVKNNFVLIYELLDEILDFGYPQNTDPGVLKTFITQQGVRTADAPVPVTKEEQSQITSQVTGQIGWRREGIKYRRNELFLDVIEYVNLLMNQQGQVLSAHVAGKVAMKSYLSGMPECKFGINDKITIEGKSKPGSDDPNKASRAAVAIDDCQFHQCVKLTKFETEHAISFIPPDGEYELMRYRTTKDIQLPFRVIPLVREVSRNKMEVKVVVKSNFKPSLLAQKLEVRIPTPPNTSGVQLICMKGKAKYKAGENAIVWKIKRMAGMKESQISAEIDLLSTGNVEKKKWNRPPVSMNFEVPFAPSGLKVRYLKVFEPKLNYSDHDVIKWVRYIGRSGLYETRC
modifications: 35S-labeled
B3: endogenous CED-6 (protein, UniProt O76337 1-492)
chain: T1 sequence

Assays:
[1] = target: T1, endogenous CED-6 (C. elegans (endogenous in whole animal lysate)); test: co-IP; IP of endogenous CED-1 or CED-6 with CED-1C or CED-6 antibody from whole cell lysates of N2 or GFP-fusion-expressing animals (controls: ced-1(e1735), ced-1 RNAi, ced-6 RNAi); blots with CED-1C, CED-6 and GFP antibodies
[2] = target: T2, endogenous CED-1 (C. elegans (endogenous in whole animal lysate)); test: as above
[3] = target: T3, GST-fused intracellular region of CED-1 (CED-1C, amino acids 933–1111) (C. elegans); test: pull-down; GST or GST fusion (3 µg) immobilized on glutathione-Sepharose beads, incubated with 35S-labeled in vitro translated protein at 4°C for ≥4 h, washed extensively; autoradiography; only the target purified
[4] = target: T4, GST-fused CED-6 (C. elegans); test: as above
[5] = target: T5, GST-fused DYN-1 (C. elegans); test: as above
[6] = target: T6, GST-fused LST-4 (C. elegans); test: as above
[7] = target: T7, GST-fused CED-9 (C. elegans); test: as above

Binder	binding [1]	binding [2]	binding [3]	binding [4]	binding [5]	binding [6]	binding [7]
B1	binds	binds					
B2			no binding	binds	binds	binds	no binding
B3		binds					
